The full ranking holds about 33,000 sequences; the median of “E-score (-0.5 to 0.5)” is about -0.054, and the highest 2% start at about 0.39. The list shows a part of the results.
What follows are sequences tested against Ylr278c (UniProt Q05854) (assay: PBM E-score (8-mer binding enrichment) (E-score (-0.5 to 0.5)); higher = stronger / more preferred TF binding; most listed sequences are background and not binding sites). Conditions: protein concentration: 200 nM; construct: GST-DNA-binding domain.
Description: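 Universal 'all 10-mer' protein binding microarrays (Agilent AMADID 015681) probed with GST-tagged S. cerevisiae TFs (full-length or DBD) made by in vitro transcription/translation (PURExpress), about 100-200 nM. Bound TF was detected with fluorescent anti-GST. Each ungapped 8-mer (which stands for itself and its reverse complement) is scored by the PBM enrichment score (E-score), a modified Wilcoxon-Mann-Whitney statistic from -0.5 to +0.5, computed with the Universal PBM Analysis Suite. Scale: above 0.35 generally sequence-specific binding.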

Compared with AGAGTGGC, GATGAAGA is higher in “PBM E-score” value: -0.143 for the first, 0.0661 for the second.

Going from GAGCCCGC to ATCGCATC, the “PBM E-score” value falls from 0.16 to 0.115.

Going from ATAGACCC to CAGTCGAC, the “PBM E-score” value falls from 0.077 to -0.104.

Compared with AGTCTGTA, AGGTTGAG is lower in “PBM E-score” value: -0.179 for the first, -0.274 for the second.

Going from TGTCCGAA to ATAATGAC, the “PBM E-score” value falls from 0.407 to -0.131.

Going from CTGCGCCA to AACTTCGC, the “PBM E-score” value rises from -0.0415 to 0.0283.

Going from ACAGGAGC to AACCTCTA, the “PBM E-score” value rises from -0.0789 to 0.0888.

Compared with CTGTTTTC, GTGCGGTA is higher in “PBM E-score” value: -0.0785 for the first, 0.179 for the second.

First: CCAGCAGG
Second: CTTACTCA
The “PBM E-score” value of the first is lower: -0.276 for the first, -0.11 for the second.

First: AGCTCAAT
Second: AGTAGAGC
The “PBM E-score” value of the first is higher: -0.12 for the first, -0.206 for the second.

Going from AACTGGAG to AGGTCTGC, the “PBM E-score” value falls from -0.0801 to -0.29.

Compared with ATAGAAAC, AACGTATC is lower in “PBM E-score” value: -0.0464 for the first, -0.183 for the second.

Going from CCGGTACC to GTAAGGAC, the “PBM E-score” value falls from 0.338 to -0.00016.

Going from GTAACGGA to AAGAGCTT, the “PBM E-score” value falls from 0.332 to -0.0532.

Going from GTTTAAAC to ACAGGACG, the “PBM E-score” value falls from 0.22 to -0.043.

Compared with AATACTAC, AGTAGACG is lower in “PBM E-score” value: -0.0988 for the first, -0.154 for the second.

First: ACGCTATC
Second: GAAGTGTA
The “PBM E-score” value of the first is higher: -0.0536 for the first, -0.174 for the second.

First: CCTCCGTC
Second: GATTCCAA
The “PBM E-score” value of the first is higher: 0.351 for the first, -0.116 for the second.

Going from GCGTGCCA to ATACTATC, the “PBM E-score” value falls from -0.0657 to -0.117.

Compared with CCCAGGAC, CGTGTAAG is lower in “PBM E-score” value: -0.0962 for the first, -0.138 for the second.

Going from TATGACCA to CGTCGTCA, the “PBM E-score” value falls from -0.0708 to -0.0908.

Going from TCGAACCA to GCAAGAGA, the “PBM E-score” value falls from -0.149 to -0.205.

First: GGCGGTTA
Second: GCTCGTAC
The “PBM E-score” value of the first is higher: 0.00531 for the first, -0.129 for the second.

Going from ACCGATTC to GAATCATC, the “PBM E-score” value falls from 0.0932 to -0.0443.

Compared with CATCTGAA, AGTCAGGC is higher in “PBM E-score” value: -0.114 for the first, 0.146 for the second.

Compared with ATAGACTG, CGAAACTC is higher in “PBM E-score” value: -0.233 for the first, 0.237 for the second.

First: CCGGAACG
Second: AAGGATCT
The “PBM E-score” value of the first is higher: 0.411 for the first, -0.273 for the second.

First: AGCAGGAA
Second: CTGTGATA
The “PBM E-score” value of the first is higher: -0.159 for the first, -0.247 for the second.

Going from ATCCGAAT to ACCTCTAA, the “PBM E-score” value falls from 0.395 to -0.0079.

First: AGGCTGGG
Second: AATACATG
The “PBM E-score” value of the first is lower: -0.326 for the first, 0.0903 for the second.

Going from CGATATTC to ACGACCAG, the “PBM E-score” value falls from 0.257 to -0.208.

Compared with TGTATTAA, CTGTGGTC is lower in “PBM E-score” value: -0.0503 for the first, -0.104 for the second.

First: AGCATTAA
Second: ACGCGCGC
The “PBM E-score” value of the first is lower: -0.0282 for the first, 0.153 for the second.

First: AAACCCCA
Second: CTATCAGA
The “PBM E-score” value of the first is higher: -0.0305 for the first, -0.102 for the second.

Compared with ACAACTAC, GTAGTAAA is lower in “PBM E-score” value: 0.0206 for the first, -0.0567 for the second.

First: GTCTTCAC
Second: GGGGCCTA
The “PBM E-score” value of the first is higher: 0.00183 for the first, -0.0926 for the second.

Compared with CTATCAAG, GTCTTCCA is lower in “PBM E-score” value: -0.176 for the first, -0.231 for the second.

Compared with ACATAATG, ATAATTAC is higher in “PBM E-score” value: 0.0146 for the first, 0.0989 for the second.

First: ACGATAAT
Second: ATCCGCAG
The “PBM E-score” value of the first is lower: -0.134 for the first, 0.259 for the second.

Compared with CGCTATAG, GCACGTAA is lower in “PBM E-score” value: -0.159 for the first, -0.239 for the second.

Going from AAGGACAG to GTTAGGTA, the “PBM E-score” value rises from -0.07 to -0.0613.

Compared with ATATCGTA, CTGCGAAC is lower in “PBM E-score” value: -0.113 for the first, -0.285 for the second.

Compared with AGATATAC, AATGGAGG is higher in “PBM E-score” value: -0.157 for the first, 0.0263 for the second.

Going from ACAGGAGG to GCGACGGA, the “PBM E-score” value rises from -0.167 to 0.313.

Going from ATAGAGCC to GGCAGGTA, the “PBM E-score” value rises from -0.0581 to 0.0246.

Going from CCAAGGTA to AAAGACTC, the “PBM E-score” value falls from -0.15 to -0.219.

Going from ATATTAGA to GTGTTAAA, the “PBM E-score” value falls from -0.0388 to -0.223.

Compared with CCATGCCG, ACCGGCTA is lower in “PBM E-score” value: 0.277 for the first, 0.199 for the second.

First: GCTTGACC
Second: GGAAGCGA
The “PBM E-score” value of the first is lower: 0.0293 for the first, 0.0891 for the second.

Going from AAGGATAA to AAAGGAGA, the “PBM E-score” value rises from -0.152 to -0.135.

First: AGAAACGC
Second: ATGTCCGG
The “PBM E-score” value of the first is lower: -0.00934 for the first, 0.468 for the second.

Compared with AGATGTTA, TGAATTCA is lower in “PBM E-score” value: -0.216 for the first, -0.237 for the second.

First: AAAAAGTT
Second: GGACATCA
The “PBM E-score” value of the first is lower: -0.116 for the first, 0.214 for the second.

Going from CAGATACG to AAACGCCT, the “PBM E-score” value falls from 0.0708 to -0.0556.

Compared with AGATATGA, CCACGTCA is lower in “PBM E-score” value: -0.0053 for the first, -0.236 for the second.

First: GATCGTGA
Second: CGCTCAGC
The “PBM E-score” value of the first is lower: -0.0709 for the first, -0.0244 for the second.

Going from CGAGTGAA to GAAATGTA, the “PBM E-score” value rises from -0.0383 to 0.144.

First: CGTCTGCA
Second: CTCGAAGA
The “PBM E-score” value of the first is lower: -0.24 for the first, -0.135 for the second.

First: ATCTAGAC
Second: GTCTGAGA
The “PBM E-score” value of the first is lower: -0.311 for the first, -0.151 for the second.

First: GACTTCCA
Second: CATCTCAA
The “PBM E-score” value of the first is higher: 0.0321 for the first, -0.207 for the second.

Compared with AAATCTCA, TGACCGCA is higher in “PBM E-score” value: -0.13 for the first, 0.0189 for the second.

Compared with CAGAATAC, CCCCGCAC is higher in “PBM E-score” value: 0.0389 for the first, 0.245 for the second.

Going from AATGTAAC to AGCAAATC, the “PBM E-score” value rises from -0.0522 to 0.0215.

Compared with GGAGAGGA, AGGGTCAC is lower in “PBM E-score” value: -0.0154 for the first, -0.133 for the second.

Compared with CCAATCCG, GAGGGTTA is lower in “PBM E-score” value: 0.306 for the first, -0.181 for the second.

First: TAAATGTA
Second: GCCGACCC
The “PBM E-score” value of the first is lower: -0.154 for the first, 0.175 for the second.

Compared with ACTGTTGC, GAGTCAAA is lower in “PBM E-score” value: 0.0649 for the first, 0.0637 for the second.

Going from AGCTAAGA to ACGTCATC, the “PBM E-score” value rises from -0.127 to -0.104.

Compared with CATTCTCG, CCATGGGC is lower in “PBM E-score” value: 0.0695 for the first, 0.0313 for the second.

First: ATTGATAC
Second: CACATAAA
The “PBM E-score” value of the first is higher: 0.0983 for the first, -0.0718 for the second.

Compared with GGTGTGAC, CAACACTC is higher in “PBM E-score” value: -0.172 for the first, 0.133 for the second.

Compared with CGCCCATA, TAGTCAGA is lower in “PBM E-score” value: 0.0865 for the first, -0.194 for the second.

Compared with GCCGTGTA, CGTCGTAG is lower in “PBM E-score” value: 0.0697 for the first, 0.00558 for the second.

Compared with CGAGCGAA, TTGCCCAA is lower in “PBM E-score” value: 0.0708 for the first, -0.125 for the second.

First: GTCGAGAC
Second: CCTTGACC
The “PBM E-score” value of the first is lower: -0.00117 for the first, 0.0455 for the second.

First: GGCGAGAA
Second: AGTCCGTG
The “PBM E-score” value of the first is lower: 0.15 for the first, 0.343 for the second.

Compared with CTGAACTA, GAGGGTCC is higher in “PBM E-score” value: -0.121 for the first, 0.173 for the second.

Going from AACTCATG to AATTGCAG, the “PBM E-score” value rises from -0.174 to -0.0839.

First: ACGGCACG
Second: CGTATGTA
The “PBM E-score” value of the first is higher: -0.0262 for the first, -0.0945 for the second.

First: TACTCACA
Second: CATGATCC
The “PBM E-score” value of the first is lower: -0.248 for the first, 0.177 for the second.

First: GCGCCGAA
Second: ACCCAGCC
The “PBM E-score” value of the first is higher: 0.302 for the first, -0.203 for the second.

Compared with GGCGGTCA, TAGTTAAA is lower in “PBM E-score” value: 0.253 for the first, -0.106 for the second.

First: CCTACCTA
Second: AAAGCCGA
The “PBM E-score” value of the first is lower: -0.185 for the first, 0.357 for the second.

Going from CAGAGCCC to CCGTGGGA, the “PBM E-score” value rises from -0.125 to -0.055.

Compared with ATCCCGAG, ATTAGGCC is lower in “PBM E-score” value: 0.308 for the first, -0.102 for the second.

Going from GAGGAATA to CATGTTAA, the “PBM E-score” value falls from 0.184 to 0.0539.

— the supplement of paper PMC3334620
